Experimental findings from the antibiotic and cytotoxicity screens of Wong et al. (2023) are described below.

For one test, the system named is HSkMC. The test can be described thus: cytotoxicity call (relative viability < 0.9). The note with it: 10 µM.
The test system of another test is HepG2. The test can be described thus: cytotoxicity call (relative viability < 0.9). The note with it: 10 µM.
Another test has as its system S. aureus RN4220. The test can be described thus: growth inhibition call (relative growth <= 0.2). The note with it: 50 µM.

The other results are listed elsewhere or left out.

For the molecule `Cc1noc(C)c1S(=O)(=O)N(C)C[C@@H]1Oc2ccc(NS(=O)(=O)c3ccc(Cl)cc3)cc2CC(=O)N([C@@H](C)CO)C[C@@H]1C`, the cytotoxicity call in the test on HSkMC and in the test with HepG2 was “inactive” in each case. Besides, in the test with S. aureus RN4220, the growth inhibition call was “inactive”.

`COc1ccc(NC(=O)Nc2ccc3c(c2)C(=O)N([C@@H](C)CO)C[C@H](C)[C@@H](CN(C)S(=O)(=O)c2ccc(C)cc2)OCCCC[C@H](C)O3)cc1`: the cytotoxicity call with HSkMC and in the test on HepG2 was “inactive” in each case. Further, the growth inhibition call in the test on S. aureus RN4220 was “inactive”.

With `NS(=O)(=O)Cc1ccccc1F`, the cytotoxicity call with HSkMC and with HepG2 was “inactive” throughout. The growth inhibition call with S. aureus RN4220 was “inactive”.

Take `C[C@@H]1CN([C@@H](C)CO)C(=O)c2cccc(NC(=O)C3CCOCC3)c2O[C@H]1CN(C)S(=O)(=O)c1ccccc1`: the cytotoxicity call with HSkMC and in the test on HepG2 was “inactive” each time. For the same molecule, the growth inhibition call in the test on S. aureus RN4220 was “inactive”.

Turning to `C[C@@H]1CCCCO[C@H](CN(C)C)[C@@H](C)CN([C@@H](C)CO)C(=O)c2cc(NC(=O)Nc3cccc4ccccc34)ccc2O1`, the cytotoxicity call in the test on HSkMC and in the test with HepG2 was “inactive” in each case. Besides, the growth inhibition call with S. aureus RN4220 was “inactive”.

Consider `Cc1noc(C)c1NC(=O)Nc1ccc2c(c1)C(=O)N([C@@H](C)CO)C[C@H](C)[C@@H](CN(C)Cc1ccc(C(F)(F)F)cc1)O2`, for which the cytotoxicity call in the test with HSkMC and with HepG2 was “inactive” each time. Moreover, the growth inhibition call in the test on S. aureus RN4220 was “inactive”.

`CS(=O)(=O)N1CCc2c(-c3cnc(N)nc3)nc(N3CCOCC3)nc21`: the cytotoxicity call in the test with HSkMC and in the test on HepG2 was “active” throughout. The growth inhibition call with S. aureus RN4220 is “inactive”.

As to `Cc1noc(C)c1NC(=O)N(C)C[C@H]1OCCCC[C@@H](C)Oc2ccc(NS(=O)(=O)c3ccc(F)cc3)cc2C(=O)N([C@H](C)CO)C[C@@H]1C`, the cytotoxicity call with HSkMC and in the test with HepG2 was “inactive” each time. In addition, the growth inhibition call in the test with S. aureus RN4220 is “inactive”.

As for `C[C@@H]1CN([C@H](C)CO)C(=O)Cc2cc(NS(=O)(=O)c3cn(C)cn3)ccc2O[C@H]1CN(C)C(=O)NC1CCCCC1`, the cytotoxicity call with HSkMC and with HepG2 was “inactive” throughout. In the test on S. aureus RN4220, the growth inhibition call is “inactive”.

For `COc1ccc(CNC(=O)C[C@H]2CC[C@H]3[C@@H](COc4ccc(NC(=O)C(C)C)cc4C(=O)N3C)O2)cc1`, the cytotoxicity call in the test with HSkMC and in the test with HepG2 was “inactive” each time. Further, in the test with S. aureus RN4220, the growth inhibition call was “inactive”.

For the molecule `C[C@@H]1CN([C@@H](C)CO)S(=O)(=O)c2ccc(Br)cc2O[C@@H]1CN(C)Cc1ccc(C(=O)O)cc1`, the cytotoxicity call with HSkMC and in the test with HepG2 was “inactive” each time. Further, the growth inhibition call in the test with S. aureus RN4220 is “inactive”.

Take `C[C@@H]1CN([C@@H](C)CO)C(=O)Cc2cc(NC(=O)C3CC3)ccc2O[C@H]1CN(C)S(=O)(=O)c1ccc(Cl)cc1`: the cytotoxicity call in the test on HSkMC and in the test with HepG2 was “inactive” in each case. Besides, the growth inhibition call in the test with S. aureus RN4220 is “inactive”.

Regarding `COc1ccc2c3c([nH]c2c1)[C@H](CO)N(CC1CCCC1)C[C@]13CCN(CC1)C(=O)c1ccc(cc1)F`, the cytotoxicity call in the test on HSkMC was “active”. Moreover, the cytotoxicity call with HepG2 was “inactive”. Also, the growth inhibition call in the test with S. aureus RN4220 was “inactive”.

Regarding `C[C@H](CO)N1C[C@H](C)[C@H](CN(C)Cc2ccccc2)Oc2ccc(NC(=O)Cn3cnnn3)cc2C1=O`, the cytotoxicity call with HSkMC and in the test with HepG2 was “inactive” in each case. In the test on S. aureus RN4220, the growth inhibition call was “inactive”.

Consider `C[C@@H]1CN([C@H](C)CO)S(=O)(=O)c2ccc(-c3cncnc3)cc2O[C@H]1CN(C)C(=O)CN(C)C`, for which the cytotoxicity call in the test with HSkMC and with HepG2 was “inactive” throughout. The growth inhibition call in the test with S. aureus RN4220 was “inactive”.

For `COc1cccc(S(=O)(=O)Nc2ccc3c(c2)OC[C@@H](C)N(C(=O)Cc2cccnc2)C[C@H](C)[C@H](OC)CN(C)C3=O)c1`, the cytotoxicity call in the test on HSkMC and in the test on HepG2 was “inactive” each time. Moreover, the growth inhibition call in the test with S. aureus RN4220 is “inactive”.

Take `C[C@@H]1CCCCO[C@H](CN(C)Cc2ccccc2)[C@H](C)CN([C@H](C)CO)C(=O)c2cc(NS(=O)(=O)c3ccccc3)ccc2O1`: the cytotoxicity call in the test on HSkMC and in the test on HepG2 was “inactive” each time. Moreover, in the test with S. aureus RN4220, the growth inhibition call is “inactive”.

In the case of `C[C@@H]1CN([C@@H](C)CO)S(=O)(=O)c2ccc(C#Cc3ccncc3)cc2O[C@H]1CN(C)C(=O)C1CCOCC1`, the cytotoxicity call with HSkMC is “inactive”. Also, the cytotoxicity call in the test with HepG2 was “active”. Also, the growth inhibition call in the test with S. aureus RN4220 is “inactive”.

With `COc1ccc(CN2CCN(C(c3ccc(F)cc3)c3ccc(F)cc3)CC2)c(OC)c1OC.Cl`, the cytotoxicity call with HSkMC is “inactive”. Also, the cytotoxicity call in the test on HepG2 is “active”. For the same molecule, the growth inhibition call in the test with S. aureus RN4220 is “inactive”.

As to `Cc1ncc([N+](=O)[O-])n1CCO`, the cytotoxicity call in the test with HSkMC and in the test with HepG2 was “inactive” throughout. Besides, the growth inhibition call with S. aureus RN4220 is “inactive”.

In the case of `COc1ccc(S(=O)(=O)N(C)C[C@@H]2OCCCC[C@H](C)Oc3ccc(NC(=O)CCC(F)(F)F)cc3C(=O)N([C@@H](C)CO)C[C@@H]2C)cc1`, the cytotoxicity call in the test on HSkMC and in the test with HepG2 was “inactive” each time. Moreover, the growth inhibition call in the test on S. aureus RN4220 is “inactive”.

For the molecule `C[C@@H]1CN([C@H](C)CO)C(=O)c2cc(NC(=O)CCC(F)(F)F)ccc2O[C@@H](C)CCCCO[C@@H]1CN(C)C(=O)CCC(F)(F)F`, the cytotoxicity call in the test with HSkMC and in the test with HepG2 was “inactive” each time. Also, in the test with S. aureus RN4220, the growth inhibition call is “inactive”.

On to `COc1ccc(-c2cnc3c(c2)C(=O)N([C@@H](C)CO)C[C@@H](C)[C@H](CN(C)C(=O)Cc2ccncc2)O3)cc1`, for which the cytotoxicity call in the test on HSkMC (human skeletal muscle cells) and in the test with HepG2 was “inactive” throughout. Besides, the growth inhibition call in the test with S. aureus RN4220 was “inactive”.

As for `CC(C)(N)c1cn(C2CCN(C(=O)C3CCC(C(C)(C)C)CC3)CC2)nn1` (centres undefined), the cytotoxicity call with HSkMC and in the test on HepG2 was “inactive” in each case. Besides, the growth inhibition call in the test on S. aureus RN4220 is “inactive”.

As to `CC(C)NC(=O)N(C)C[C@H]1Oc2ccc(NC(=O)CCN3CCOCC3)cc2C(=O)N([C@@H](C)CO)C[C@H]1C`, the cytotoxicity call in the test with HSkMC and in the test with HepG2 was “inactive” each time. In the test with S. aureus RN4220, the growth inhibition call is “inactive”.

Turning to `C[C@@H]1CN([C@H](C)CO)C(=O)c2cc(NC(=O)Nc3ccc(F)cc3)ccc2O[C@@H](C)CCCCO[C@H]1CN(C)C(=O)Nc1ccc(C(F)(F)F)cc1`, the cytotoxicity call in the test with HSkMC was “inactive”. Moreover, the cytotoxicity call in the test with HepG2 was “active”. Also, the growth inhibition call in the test on S. aureus RN4220 is “inactive”.

Consider `CCCNC(=O)N[C@H]1CC[C@H](CC(=O)N2CCN(C)CC2)O[C@@H]1CO`, for which the cytotoxicity call in the test with HSkMC and in the test on HepG2 was “inactive” throughout. In the test with S. aureus RN4220, the growth inhibition call was “inactive”.

`Cc1ccc(S(=O)(=O)Nc2ccc3c(c2)C(=O)N([C@@H](C)CO)C[C@@H](C)[C@H](CN(C)C(=O)NC2CCCCC2)OCCCC[C@@H](C)O3)cc1`: the cytotoxicity call with HSkMC is “inactive”. Moreover, in the test on HepG2, the cytotoxicity call is “active”. Besides, the growth inhibition call with S. aureus RN4220 was “inactive”.
